# The supplement of paper PMC11417369
# ± gives the standard deviation of the averaged measurements. Some of the results follow.
# Test system: PfAP2-EXP AP2 domain (GST-tagged)
# Assay: gcPBM binding intensity (ln(normalized median fluorescence intensity)); higher = stronger DNA binding
# In short: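 DNA-binding domains from P. falciparum, fused to GST and produced in E. coli, were put on an Agilent 4 × 180k double-stranded probe array for 1 h in 1× PBS holding 1% milk, 0.2 mg/ml BSA, 0.5% salmon testes DNA and 0.03% Triton X-100. Probes were primer-extended, 36 bp long and drawn from intergenic genomic regions, with negative controls included. After Alexa488 anti-GST antibody detection and a 488 nm scan, binding intensity was set as the highest Masliner-normalised natural-log median intensity across replicate spots of either probe orientation.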
row,Sequence,gcPBM binding intensity (ln)
1,AAATATTTTTAGAGTGCATGTAATAAAAATATAATG [TGCATGCA_site19],8.98 ± 0.26
2,AAGATCGCATGAAATGAACACACATAAAAAAAATAT [CACACA_site9353],8.73 ± 0.53
3,CGTTGGTATTAAAAGGTGCAATGAAATAATATATTA,8.79 ± 0.16
4,TAAAATTTATAAACTACACACATATATATAGTAATA [CACACA_site3728],8.29 ± 0.45
5,AATGTAACAACTTTTTGTACTTAAGAAATAATAAAT [XGTACX_site3310],8.41 ± 0.32
6,TAAAAAATTATATTCACACACATACCCATATATATA [CACACA_site4458],8.6 ± 0.28
7,TAATTTAGATATATAAAGAATTAAAGTTAACATTCT [CACACA_negctrl_site726],8.17 ± 0.54
8,TTAAGAAAAAAAAAAAGTACACACATATAATATATA [XGTACX_site6268],8.57 ± 0.44
9,TTTTTCAGATCCTATATAGTATCATATAAATTCCAT [CACACA_negctrl_site56],8.49 ± 0.26
10,ATATATATATAATAAAGTACAAATTCTAAATGATAT [XGTACX_site570],9.52 ± 0.2
11,TATCTTATGTCTGAAAGTACAAATTTTTTTCTACTT [XGTACX_site2208],8.38 ± 0.28
12,ATTATCTATCGTTTTTGTACTTACACCTTAATACAA [XGTACX_site7337],9.09 ± 0.42
13,ACTACGAATGGTAGAGTGCAGTCTGGAGAAAAGTAC [GTGCAC_site9681],9.3 ± 0.38
14,CTTTTTTTTTTTTTTGCGCACTGTTTAAAGGGAAAT [GTGCAC_site9815],8.73 ± 0.23
15,GTGTGATATAATTTTTTTAGAGCTTTATAATATTAT [CACACA_negctrl_site233],8.43 ± 0.32
16,CAACCATTTGTAGGTAAACACACATTATTATTAATA [CACACA_site8842],8.31 ± 0.39
17,TATGTTGATGATATTACACACCCAATGAGAAAAGGA [CACACA_site7060],8.85 ± 0.49
18,GTTAAGCAATATATATGTACTTATGGAATAGAAAAA [XGTACX_site3693],8.78 ± 0.42
19,AAGTTACAGAATATCACACATAAATTATCTGTATAT [CACACA_site5116],8.27 ± 0.3
20,TCAATTAATTATTTTTGTACACAAGAATTACTGAAT [XGTACX_site6401],8.4 ± 0.29
21,TATTTGTAATATAACACACACAAAAAAAGACTCGGA [CACACA_site1681],8.8 ± 0.45
22,TTTGTCAAATAATATTGTACTAAAAAATTTTGCCTT [XGTACX_site7485],8.44 ± 0.45
23,ATACACACAGCCTAAACATGCATATAGAAAAAAGAA [TGCATGCA_site1028],9.21 ± 0.29

row,Sequence,gcPBM binding intensity (ln)
1,TTTATTTACTATTAAAGTACTAAATCATATAATTAT [XGTACX_site2580],8.15 ± 0.32
2,TGTTTATACATCAGGTGTACGCAAAATAATTGTATG [XGTACX_site206],8.63 ± 0.31
3,TTAACACATGCTTGGTCACACACGTATGCATATTTA [CACACA_site2127],8.76 ± 0.39
4,TATACATATACATATACACACACACCCATAAATAAA [CACACA_site8372],9.05 ± 0.38
5,TTAGTTTATTGGTACTGTACTTTTTTTTTCTCCATT [XGTACX_site8618],8.81 ± 0.58
6,TTATTTAAAATTTTTATGCGTATATATATAGGAACA [CACACA_negctrl_site388],8.62 ± 0.4
7,TATCATATATGAAGGTGTACGATTTATTATATAAAT [XGTACX_site7010],8.65 ± 0.35
8,ATTTTTGAACGGTACAGTACAGAATTTAATTAACCC [XGTACX_site47],9.13 ± 0.54
9,AATTTTTATTTGTACACACATACATATATATTATAT [CACACA_site993],8.88 ± 0.23
10,CACAAAATAAATTAAACACACAACATCATAGATGTA [CACACA_site4619],8.35 ± 0.5
11,ATAAATAATATAAATACACACTAAAAAAAATATATA [CACACA_site4456],8.62 ± 0.54
12,ATATAATCAGCTTCTCTTTTATGCTAAAAAAAAAAA [CACACA_negctrl_site1310],8.25 ± 0.3
13,TTTATATATTTCATAATACACACGAAAAAAAAAAAA [CACACA_site2970],8.61 ± 0.45
14,TTTTTATTTACACTTTTTATTTATATATTATGTACG [CACACA_negctrl_site158],8.87 ± 0.32
15,TGTCATCATCTTAAATGTACAAAAAGGAAATATAAA [XGTACX_site1529],8.9 ± 0.49
16,TTTTTATTAAGACATGCATGGAAACGCACTATTTTA [TGCATGCA_site999],9.04 ± 0.12
17,TTTATATCATTTCTTAAAAAAAAGGAGGTAATAGAC [TGCATGCA_negctrl_site555],9.25 ± 0.28
18,AATAAATAAATATATACACACATATATGTCTACATA [CACACA_site3158],8.3 ± 0.4
19,TATATATGCATTAAATGATGTTCCTGTTTTTTAAAA [CACACA_negctrl_site1378],8.71 ± 0.44
20,ATACGAAGTACGTACACACACTTATATGTTACTAAA [CACACA_site7812],8.6 ± 0.27
21,TTGCATTACGAACATACACACAGAATAACTGAAAAC [CACACA_site3025],8.88 ± 0.53
22,TTCGATGAATATACAAGTACATATCCTTACGAACTG [XGTACX_site1650],8.26 ± 0.41
23,TATTTGTGTATTTTTACACACATTAATATATTTATA [CACACA_site7562],8.08 ± 0.27

row,Sequence,gcPBM binding intensity (ln)
1,TGTACAAATTATACTTCGAACGAAGGGCATACATAT [XGTACX_negctrl_site37],8.88 ± 0.42
2,TATATATATATTATATGTACACATTTGTGAATTATT [XGTACX_site5848],9.46 ± 0.26
3,TATAGATAACAAAAGTGTACATGTTGTATACACATG [XGTACX_site3471],8.73 ± 0.31
4,AACAACTATTACTGCACACATTCTTACACTATATAA [CACACA_site654],9 ± 0.3
5,TATATATATAAACACACACACACACCCAAGCGTAGC [CACACA_site4210],9.12 ± 0.29
6,TATTCCTATATAAAGACACACATATGTAACTACGAT [CACACA_site4139],8.66 ± 0.57
7,TGTGTTATATATAAAGAAAAAAAAAAAAAATATATA [CACACA_negctrl_site567],8.46 ± 0.42
8,AAAAATTTAATTATTTGTACATAAAATACATTTCTG [XGTACX_site791],8.14 ± 0.38
9,ATTATAATAATGTGATGTACATTAATTGTCTTCCTA [XGTACX_site5404],8.63 ± 0.41
10,AATACATCATTAAAATGTACATATATATATACATTA [XGTACX_site132],8.32 ± 0.35
11,ATATATATTAATTTTGTGCACAAATGGAAATGTTTG [GTGCAC_site9971],8.97 ± 0.26
12,GAAATAAGGGTTATTTCACACATTGCATGTATTTTC [CACACA_site5752],8.95 ± 0.49
13,AAATACTTAACATTGGTGCATATTTGTAAAATTATT [GTGCAC_site9515],8.79 ± 0.13
14,TTTTTTTTTTTTTTATGTACTAAAAAATGAAAAATA [XGTACX_site6812],8.27 ± 0.43
15,AAAAAAAAAAAAAAAACACACACATATATATAATAT [CACACA_site9038],8.67 ± 0.23
16,TTATTTATTTATTGGGTGCACTTGATTTAAATATGC,9.26 ± 0.69
17,AGAATACAAAATTGCACACATATTGTGAAAATGTTA [CACACA_site4005],8.39 ± 0.28
18,ATGCAATAATAATATTGTACGCATATATTTTTTACT [XGTACX_site3384],8.41 ± 0.3
19,TTTTGGCTTCTAATATTATACAAAATGGTAAGGAAA [TGCATGCA_negctrl_site169],8.58 ± 0.41
20,TTATAAAATATTTTTTGTACACATAATAGTAAGACT [XGTACX_site933],8.63 ± 0.26
21,CCATAATATTATAGACGTACGAATATATATAAAAGA [XGTACX_site7295],9.18 ± 0.47
22,CACCCACACCAACACACACACATATATAATATATAT [CACACA_site595],8.81 ± 0.39
23,GATTAATACACATTCTTCCGACATAATAAGAAAAAG [GTGCAC_negctrl_site7],8.55 ± 0.47

row,Sequence,gcPBM binding intensity (ln)
1,CTTATATTTAGACACACACACAATAAAATGAAAAAA [CACACA_site1031],8.76 ± 0.69
2,AACCATGTTAACAACGCATGTATATCTATGGGTTTA [TGCATGCA_site419],8.33 ± 0.35
3,AATACATGCTTATTTTAACACACAAATGGTAGTAAT [CACACA_site8154],8.49 ± 0.38
4,GATTATTTTATAAGTACACACATTTATCTATAATAA [CACACA_site7256],8.42 ± 0.18
5,TTTTTTAAATGTCATTGTACATAATTCAATATATAA [XGTACX_site5],8.24 ± 0.13
6,TGACTTTTTTTATGTTGTACTTATTATAAAAAAAAT [XGTACX_site7736],8.77 ± 0.49
7,AGCTAATATATCTTATATTCATATAAAAAAATATAT [CACACA_negctrl_site1786],8.19 ± 0.35
8,ATTAAAACACAATATTCACACATGTATATTATATAT [CACACA_site5191],8.39 ± 0.33
9,TTAACATACACTCTAGTGCATATATATAACAAAATA [GTGCAC_site9724],8.72 ± 0.14
10,ATCATATTTATATTGGTGCATTATGCATGAAATTTA [GTGCAC_site9571],8.92 ± 0.11
11,AATTTAAATCTTCAAAGTACTAAAAAAAAAAATAAT [XGTACX_site8566],8.62 ± 0.52
12,AAACGATTAATGTGTACACACATAGTTATAAACATA [CACACA_site7073],8.59 ± 0.24
13,TTACACATGTATTTGGTGCATGTTGTTAACAAAATA,8.72 ± 0.13
14,CGCCCACAGATATATACACACATATATAAATAAATA [CACACA_site6877],8.6 ± 0.66
15,TATGCTTTGATGAAGACACACATATAGAAGCGTATT [CACACA_site1925],8.53 ± 0.41
16,TATGTTATAAAATATATATTATAATATGTATATATA [XGTACX_negctrl_site233],8.19 ± 0.45
17,TACTTTTATAAAAATTGTACAAAAAAAAAAAAAAAA [XGTACX_site2266],8.2 ± 0.49
18,AAAACTATTTCTTTCAGTACATATTTGGACTTATAT [XGTACX_site4977],8.45 ± 0.43
19,ATATAAATTTAATACACACCCAAAAAAAAAAAAAAA [CACACA_site3750],8.22 ± 0.42
20,ATAATAAGCAGACACACACACACAAAAAAAAAAAAA [CACACA_site6477],8.32 ± 0.74
